In the supplement of paper PMC4967469:
IC50 is the fitted dose that halves viability relative to control wells, and lower means more sensitive; a limit (>, <) means that the fit lies beyond the doses tested. AUC, from the same fit, is the share of area under the viability curve across the 256-fold dose range; it is 1 without any effect and falls as sensitivity rises. For some assays here: An inferred top dose was calculated from the reported fits.

Key:
Test in all cases: Viability of human cancer cell lines after 72 h of drug (GDSC screen)
AG-014699 = compound: CNCc1ccc(-c2[nH]c3cc(F)cc4c3c2CCNC4=O)cc1 [AG-014699]; settings: top dose 5 µM; top dose inferred
Method: (§1)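 Human cancer cell lines in 384-well plates, medium with 10% serum, drug for 72 h over a 256-fold dose range (nine 2-fold or five 4-fold steps up to the top dose). Adherent lines were fixed and stained with the nucleic acid dye Syto60, suspension lines read with resazurin; signal relative to control wells, capped at 0 and 100%. One two-parameter sigmoid per drug and line, fitted in a mixed model over all curves with the slope shared within a line.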

QL-XI-92 = compound: C=CC(=O)Nc1cc(NC(=O)c2ccc(C)c(NC(=O)c3ccno3)c2)cc(C(F)(F)F)c1 [QL-XI-92]; settings: top dose 10.24 µM; top dose inferred
Method: as §1

NU-7441 = compound: O=c1cc(N2CCOCC2)oc2c(-c3cccc4c3sc3ccccc34)cccc12 [NU-7441]; settings: top dose 2 µM; top dose inferred
Method: as §1

Vinorelbine = compound: CCC1=C[C@@H]2CN(C1)Cc1c([nH]c3ccccc13)[C@@](C(=O)OC)(c1cc3c(cc1OC)N(C)[C@H]1[C@@](O)(C(=O)OC)[C@H](OC(C)=O)[C@]4(CC)C=CCN5CC[C@]31[C@@H]54)C2 [Vinorelbine]; settings: top dose 0.064 µM; top dose inferred
Method: as §1

WHI-P97 = compound: COc1cc2ncnc(Nc3cc(Br)c(O)c(Br)c3)c2cc1OC [WHI-P97]; settings: top dose 10.24 µM; top dose inferred
Method: as §1

S-Trityl-L-cysteine = compound: N[C@@H](CSC(c1ccccc1)(c1ccccc1)c1ccccc1)C(=O)O [S-Trityl-L-cysteine]; settings: top dose 5.12 µM; top dose inferred
Method: as §1

XL-184 = compound: COc1cc2nccc(Oc3ccc(NC(=O)C4(C(=O)Nc5ccc(F)cc5)CC4)cc3)c2cc1OC [XL-184]; settings: top dose 5.12 µM; top dose inferred
Method: as §1

Phenformin = compound: N=C(N)NC(=N)NCCc1ccccc1 [Phenformin]; settings: top dose 4000 µM; top dose inferred
Method: as §1

Erlotinib = compound: C#Cc1cccc(Nc2ncnc3cc(OCCOC)c(OCCOC)cc23)c1 [Erlotinib]; settings: top dose 2 µM
Method: as §1

Gefitinib = compound: COc1cc2ncnc(Nc3ccc(F)c(Cl)c3)c2cc1OCCCN1CCOCC1 [Gefitinib]; settings: top dose 0.5 µM
Method: as §1

EHT 1864 = compound: O=c1cc(CN2CCOCC2)occ1OCCCCCSc1ccnc2cc(C(F)(F)F)ccc12 [EHT 1864]; settings: top dose 10 µM; top dose inferred
Method: as §1

Row | Cell Line | AUC (AG-014699) | IC50 (AG-014699) [µM] | AUC (QL-XI-92) | IC50 (QL-XI-92) [µM] | AUC (NU-7441) | IC50 (NU-7441) [µM] | AUC (Vinorelbine) | IC50 (Vinorelbine) [µM] | AUC (WHI-P97) | IC50 (WHI-P97) [µM] | AUC (S-Trityl-L-cysteine) | IC50 (S-Trityl-L-cysteine) [µM] | AUC (XL-184) | IC50 (XL-184) [µM] | AUC (Phenformin) | IC50 (Phenformin) [µM] | AUC (Erlotinib) | IC50 (Erlotinib) [µM] | AUC (Gefitinib) | IC50 (Gefitinib) [µM] | AUC (EHT 1864) | IC50 (EHT 1864) [µM]
1 | HCC2218 (breast, suspension) | 0.981 | > 5 | 0.896 | > 10.2 | 0.977 | > 2 | 0.799 | 0.0404 | 0.955 | > 10.2 | 0.827 | 4.28 | 0.955 | > 5.12 | 0.161 | 16.4 | 0.973 | > 2 | 0.972 | > 0.5 | 0.943 | > 10
2 | HDLM-2 (Hodgkin lymphoma, suspension) | 0.989 | > 5 | 0.988 | > 10.2 | 0.989 | > 2 | 0.764 | 0.0229 | 0.988 | > 10.2 | 0.707 | 1.22 | 0.989 | > 5.12 | 0.802 | 1920 | 0.981 | > 2 | 0.983 | > 0.5 | 0.961 | > 10
3 | HSC-39 (stomach, suspension) | 0.99 | > 5 | 0.951 | > 10.2 | 0.969 | > 2 | 0.946 | > 0.064 | 0.991 | > 10.2 | 0.716 | 1.18 | 0.989 | > 5.12 | 0.99 | > 4000 | 0.991 | > 2 | 0.973 | > 0.5 | 0.862 | 6.71
4 | HT (B-cell lymphoma, suspension) | 0.99 | > 5 | 0.959 | > 10.2 | 0.931 | > 2 | 0.732 | 0.0172 | 0.969 | > 10.2 | 0.83 | 2.87 | 0.964 | > 5.12 | 0.515 | 273 | 0.99 | > 2 | 0.979 | > 0.5 | 0.982 | > 10
5 | HUTU-80 (digestive system, adherent) | 0.904 | 4.66 | 0.852 | 5.92 | 0.981 | > 2 | 0.414 | 0.00243 | 0.96 | > 10.2 | 0.616 | 0.628 | 0.84 | 2.69 | 0.164 | 30.8 | 0.99 | > 2 | 0.988 | > 0.5 | 0.897 | 8.64
6 | IMR-5 (neuroblastoma, adherent) | 0.988 | > 5 | 0.849 | 5.91 | 0.992 | > 2 | 0.555 | 0.00551 | 0.989 | > 10.2 | 0.591 | 0.543 | 0.903 | 4.86 | 0.977 | > 4000 | 0.99 | > 2 | 0.99 | > 0.5 | 0.962 | > 10
7 | JJN-3 (haematopoietic neoplasm, suspension) | 0.993 | > 5 | 0.806 | 4.12 | 0.992 | > 2 | 0.548 | 0.00527 | 0.976 | > 10.2 | 0.687 | 0.955 | 0.971 | > 5.12 | 0.814 | 1700 | 0.99 | > 2 | 0.978 | > 0.5 | 0.988 | > 10
8 | JM1 (B-cell lymphoma, suspension) | 0.991 | > 5 | 0.711 | 2.28 | 0.979 | > 2 | 0.666 | 0.0108 | 0.984 | > 10.2 | 0.723 | 1.23 | 0.97 | > 5.12 | 0.907 | > 4000 | 0.98 | > 2 | 0.991 | > 0.5 | 0.966 | > 10
9 | JVM-3 (lymphoid neoplasm, suspension) | 0.948 | > 5 | 0.987 | > 10.2 | 0.934 | > 2 | 0.965 | > 0.064 | 0.977 | > 10.2 | 0.987 | > 5.12 | 0.915 | > 5.12 | 0.794 | 1880 | 0.987 | > 2 | 0.941 | > 0.5 | 0.954 | > 10
10 | KARPAS-299 (anaplastic large cell lymphoma, suspension) | 0.99 | > 5 | 0.957 | > 10.2 | 0.976 | > 2 | 0.886 | 0.0499 | 0.988 | > 10.2 | 0.864 | 3.29 | 0.981 | > 5.12 | 0.818 | 1790 | 0.992 | > 2 | 0.992 | > 0.5 | 0.97 | > 10
11 | KARPAS-422 (B-cell lymphoma, suspension) | 0.979 | > 5 | 0.965 | > 10.2 | 0.886 | > 2 | 0.66 | 0.011 | 0.984 | > 10.2 | 0.745 | 1.59 | 0.986 | > 5.12 | 0.687 | 829 | 0.987 | > 2 | 0.972 | > 0.5 | 0.988 | > 10
